The densities may have been worked out from excess volumes.
Assay: xn = mol fraction of the nth substance listed
Details: 101 kPa

CC[n+]1ccn(C)c1.O=C([O-])C(F)(F)C(F)(F)C(F)(F)C(F)(F)F + O
mass density [kg/m3]
Details | 298.15 K | 308.15 K | 318.15 K
x1 = 0.0222 | – | 1113.9 | –
x1 = 0.0264 | 1140.8 | 1134.5 | 1127.6
x1 = 0.0311 | 1161.5 | – | 1147.8
x1 = 0.0364 | 1182.4 | 1175.6 | 1168.2
x1 = 0.0428 | 1204.2 | – | 1189.3
x1 = 0.0496 | 1224.4 | 1217.1 | 1209
x1 = 0.0581 | 1246.1 | 1238.4 | 1230.1
x1 = 0.067 | 1265.6 | 1257.6 | 1249
x1 = 0.0727 | 1276.6 | 1268.5 | 1259.7
x1 = 0.0857 | 1298.1 | – | 1280.6
x1 = 0.1009 | – | 1309.8 | 1300.4
x1 = 0.133 | 1350.6 | 1341.5 | 1331.7
x1 = 0.1458 | 1360.5 | – | –
x1 = 0.1625 | 1371.6 | 1362.1 | –
x1 = 0.1788 | 1380.8 | 1371.2 | 1361
x1 = 0.201 | 1391.5 | – | 1371.5
x1 = 0.2367 | – | 1395.3 | 1384.8
x1 = 0.262 | 1413.1 | – | 1392.5
x1 = 0.3007 | 1422.9 | – | 1402
x1 = 0.4265 | – | 1433.3 | 1422.3
x1 = 0.7012 | 1465.1 | 1454.3 | 1442.9
x1 = 1 | 1486.8 | 1476.2 | 1465.9

Cn1cc[n+](CCO)c1.O=S(=O)([O-])C(F)(F)C(F)(F)C(F)(F)C(F)(F)F + O
mass density [kg/m3]
Details | 298.15 K | 308.15 K | 318.15 K
x1 = 0.0178 | 1123.8 | 1119.5 | 1114.3
x1 = 0.0195 | 1133.1 | 1128.7 | 1123.4
x1 = 0.0212 | 1142.1 | 1137.2 | 1131.4
x1 = 0.0232 | – | 1148.4 | –
x1 = 0.0253 | 1163.7 | 1158.8 | 1153.1
x1 = 0.0274 | – | 1167.5 | 1161.7
x1 = 0.0297 | 1184.3 | 1179.1 | 1173.1
x1 = 0.0321 | 1194.3 | 1189.1 | –
x1 = 0.0348 | 1205.9 | 1200.4 | 1194.3
x1 = 0.0376 | 1216.1 | 1210.5 | 1204.3
x1 = 0.0405 | 1229.8 | 1224 | 1217.5
x1 = 0.0438 | 1240.3 | – | –
x1 = 0.0474 | 1251.1 | 1245.1 | 1238.3
x1 = 0.0511 | – | 1256.8 | 1249.8
x1 = 0.0551 | 1275.1 | 1268.5 | 1261.4
x1 = 0.0596 | – | 1280.7 | –
x1 = 0.0644 | 1298.4 | – | 1284.3
x1 = 0.07 | 1312.9 | – | 1298.5
x1 = 0.0756 | 1325.1 | – | 1308.6
x1 = 0.0824 | 1339.8 | 1332.5 | 1324.7
x1 = 0.0899 | 1352.8 | – | 1337.4
x1 = 0.0983 | – | 1360 | –
x1 = 0.1075 | 1381.4 | 1373.6 | 1365.3
x1 = 0.1178 | 1398.2 | 1390.2 | 1381.8
x1 = 0.1302 | 1412.1 | – | –
x1 = 0.1441 | 1429.2 | – | 1411.8
x1 = 0.1621 | 1444.4 | 1435.9 | 1426.9
x1 = 0.1816 | – | 1450.2 | 1441.2
x1 = 0.2068 | 1473.1 | – | 1454.8
x1 = 0.2329 | 1486 | 1477.1 | –
x1 = 0.2751 | 1502.9 | 1493.8 | 1484.1
x1 = 0.3277 | 1517 | 1507.8 | 1497.5
x1 = 0.3954 | 1532.4 | – | 1513.5
x1 = 0.5075 | 1550 | 1540.6 | 1530.9
x1 = 0.6777 | – | 1560.4 | 1550.8
x1 = 1 | 1620 | 1609.2 | 1598.7
